The values below come from PubChem BioAssay (NCI).

The test system of the assay is NCI-H322M lung. Nature of the assay: NCI anticancer screen, dose series, 48 h.

Molecules are shown by their SMILES.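 How tested: cells in 96-well plates exposed to compound for 48 hours at five concentrations. GI50 marks 50% less growth. TGI: concentration producing complete growth inhibition.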

For `CN(Cc1ccccc1)S(=O)(=O)/N=C1\NC(=O)NC1=C(Cl)Cl`, the GI50 is 2.09 µM and the TGI came out at 5.3 µM.
